81 molecules from the supplement of paper PMC6135742 can be followed below.

Counter-ions that a name gives are not always drawn. ± gives the standard deviation of the averaged measurements. In all, about 2,600 compounds were measured (“total cell number (DAPI+ nuclei) relative to DMSO vehicle control”: median about -1.4, lowest 2% from about -23 on). The list shows a part of the results.

The assay has as its system jimpy (Plp1 jimpy) mouse iPSC-derived oligodendrocyte progenitor cells. Nature of the assay: total cell number (DAPI+ nuclei) relative to DMSO vehicle control (SDs above negative control mean); higher = more surviving cells. The following applies: 10 µM; 3 days.
`Nc1ccc(S(N)(=O)=O)cc1` [Sulfanilamide]: the total cell number is -3.15.

Molecule `O=c1cc(O)cc(/C=C/c2ccc(O)c(O)c2)o1` [Hispidin] yielded a total cell number of -3.24.

With `CC(CCc1ccc(O)cc1)NCCc1ccc(O)c(O)c1` (stereo unspecified) [Dobutamine hydrochloride], the total cell number is -4.67.

The molecule `CCCNS(=O)(=O)Nc1ncnc(OCCOc2ncc(Br)cn2)c1-c1ccc(Br)cc1` [Macitentan] had a total cell number of -0.584.

In turn, `N[C@@H](CCC(=O)N[C@@H](CSN=O)C(=O)NCC(=O)O)C(=O)O` [S-Nitrosoglutathione] displayed a total cell number of -1.44.

The molecule `N#CC(=C(/N)Sc1ccccc1N)/C(C#N)=C(\N)Sc1ccccc1N` showed a total cell number of -6.49.

For the molecule `N#CC(=C(/N)Sc1ccccc1N)/C(C#N)=C(\N)Sc1ccccc1N` [U0126 monoethanolate], the total cell number was -5.49.

As for `Cc1[nH]c(/C=C2\C(=O)Nc3ccc(S(=O)(=O)Cc4c(Cl)cccc4Cl)cc32)c(C)c1C(=O)N1CCC[C@@H]1CN1CCCC1`, the total cell number was -27.2.

In turn, `COc1ccc(CNCc2cccc3ccccc23)cc1` returned a total cell number of -0.778.

The molecule `NC(=O)[C@@H](CCC(F)(F)F)N(Cc1ccc(-c2ncon2)cc1F)S(=O)(=O)c1ccc(Cl)cc1` came in with a total cell number of -7.03.

`C=CCN1CCCC1CNC(=O)c1cc2nn[nH]c2cc1OC` (stereo unspecified) [Alizapride HCl] displayed a total cell number of 1.9.

`CC(C)c1onc(-c2c(Cl)cccc2Cl)c1COc1ccc(/C=C/c2cccc(C(=O)O)c2)c(Cl)c1` displayed a total cell number of -1.86.

Consider `Nc1nc(Nc2ccc(S(N)(=O)=O)cc2)nn1C(=O)c1c(F)cccc1F`, for which the total cell number is -21.7.

Regarding `CC(C)[C@H](NC(=O)c1ccc2ccccc2n1)C(=O)N[C@@H](CC(=O)O)C(=O)COc1c(F)cccc1F`, the total cell number came out at 15.6.

`CC(C)(Oc1ccc(C2CC2(Cl)Cl)cc1)C(=O)O` (stereo unspecified) [Ciprofibrate] displayed a total cell number of 0.261 ± 1.4.

Molecule `COc1cccc(OC)c1-c1cc(C(=O)NC2(C(=O)O)C3CC4CC(C3)CC2C4)nn1-c1ccc(C(=O)N(C)CCCN(C)C)cc1C(C)C` (stereo unspecified) displayed a total cell number of -0.926.

Molecule `NC(=O)c1cccnc1` [Nicotinamide (Vitamin B3)] came in with a total cell number of 0.0268.

With `Nc1nccs1` [Aminothiazole], the total cell number is -0.832.

As for `Cn1c(=O)c2c(ncn2CC(O)CO)n(C)c1=O` (stereo unspecified) [Dyphylline], the total cell number was 0.0268.

`CCCc1nc(C(C)(C)O)c(C(=O)OCc2oc(=O)oc2C)n1Cc1ccc(-c2ccccc2-c2nnn[nH]2)cc1` [Olmesartan Medoxomil] yielded a total cell number of -0.616.

Consider `CCCCCCCCCCCCCCCC[N+](C)(C)C` [Cetrimonium Bromide (CTAB)], for which the total cell number is -16.

On to `O=C(NCc1ccc(Oc2ccccc2)cc1)c1nc(-c2cc(Br)c(O)c(Br)c2)no1`, for which the total cell number amounted to 0.968.

Regarding `Cc1c(Cn2c(C)nc3c(C(=O)O)cc(N4CCOCC4)cc32)cccc1C(F)(F)F`, the total cell number came to 0.996.

Regarding `CNC1(C)C2CCC(C2)C1(C)C` (stereo unspecified) [Mecamylamine hydrochloride], the total cell number is -1.4.

On to `CNC(=O)c1ccccc1Sc1ccc2c(/C=C/c3ccccn3)n[nH]c2c1` [Axitinib], for which the total cell number was -15.7.

In turn, `CC(C)(NS(=O)(=O)c1ccc(Oc2ccc(F)cc2)cc1)C(=O)NO` had a total cell number of -2.86.

`CC(CN1c2ccccc2Sc2ccccc21)N(C)C` (stereo unspecified) [Promethazine hydrochloride] yielded a total cell number of -5.88.

Consider `CNC(=O)c1ccc(N2C(=S)N(c3cnc(C#N)c(C(F)(F)F)c3)C(=O)C23CCC3)cc1F`, for which the total cell number worked out at 0.421.

Consider `O=C(c1ccc(OCCN2CCCCC2)cc1)c1c(-c2ccc(O)cc2)sc2cc(O)ccc12` [Raloxifene HCl], for which the total cell number was determined as 2.09.

For `O=C(c1ccc(OCCN2CCCCC2)cc1)c1c(-c2ccc(O)cc2)sc2cc(O)ccc12` [Raloxifene hydrochloride], the total cell number was determined as 1.26.

`CN(C)c1nc(N)c(C(=O)NC(=N)N)nc1Cl` [5-(N,N-Dimethyl)amiloride hydrochloride] had a total cell number of -1.61.

In turn, `CCOC(=O)C1=C(C)NC(C)=C(C(=O)OC)C1c1cccc([N+](=O)[O-])c1` (stereo unspecified) [Nitrendipine] returned a total cell number of -0.88 ± 0.89.

`Cc1nc2c(OCc3ccccc3)cccn2c1CC#N`: the total cell number is -1.83.

Take `N[C@H](C(=O)O)[C@H](Cc1ccccc1)C(=O)O` [L-Beta-threo-benzyl-aspartate]: the total cell number is -0.505.

The molecule `COc1cc(N2CCC(N3CCN(C)CC3)CC2)ccc1Nc1ncc(Cl)c(Nc2ccccc2S(=O)(=O)C(C)C)n1` displayed a total cell number of -27.1.

With `CC1CCc2cc(F)cc3c(=O)c(C(=O)O)cn1c23` (stereo unspecified) [Flumequine], the total cell number is -0.852.

As for `CCCCOc1ccc(OCCCN2CCOCC2)cc1` [Pramoxine HCl], the total cell number came to 4.05.

Molecule `C[C@@H](O)[C@H]1C(=O)N2C(C(=O)OCOC(=O)C(C)(C)C)=C(SC3CN(C4=NCCS4)C3)[C@H](C)[C@H]12` [Tebipenem Pivoxil] displayed a total cell number of -9.86.

The molecule `COc1ccc(C(C)=O)c(O)c1` [Paeonol] gave a total cell number of -1.45.

For the molecule `COc1ccc(-n2nc(C(N)=O)c3c2C(=O)N(c2ccc(N4CCCCC4=O)cc2)CC3)cc1` [Apixaban], the total cell number is -1.4.

Molecule `Nc1cccc(-c2cc3c(Oc4cccc(O)c4)ncnc3[nH]2)c1` displayed a total cell number of -14.2.

For the molecule `CC(C)[C@H]1CC[C@H](C(=O)N[C@H](Cc2ccccc2)C(=O)O)CC1` [Nateglinide], the total cell number came to 0.101.

`COc1c(O)cc2c(c1O)[C@@H]1O[C@H](CO)[C@@H](O)[C@H](O)[C@H]1OC2=O` [Bergenin] yielded a total cell number of -0.456.

As to `CCCOC(=O)c1c(-c2ccccc2)nc(CC)c(C(=O)SCC)c1CCC`, the total cell number was -2.19.

Regarding `CC(C)c1nc(CN(C)C(=O)N[C@H](C(=O)N[C@@H](Cc2ccccc2)C[C@H](O)[C@H](Cc2ccccc2)NC(=O)OCc2cncs2)C(C)C)cs1` [Ritonavir], the total cell number was -6.

In turn, `COc1ccccc1OCCNCC(O)COc1cccc2[nH]c3ccccc3c12` (stereo unspecified) [Carvedilol] registered a total cell number of -7.9 ± 3.3.

Regarding `Nc1ncnc2c1c(-c1cccc(OCc3ccccc3)c1)cn2C1CC(CN2CCCC2)C1` (stereo unspecified), the total cell number was -25.8.

Turning to `O=C(Nc1cccc(Cl)c1)Nc1ncc(CCNc2ncnc3ccsc23)s1` [SNS-314 Mesylate], the total cell number is -0.233.

The molecule `CCc1c(C(=O)NCCc2ccc(N3CCCCC3)cc2)[nH]c2ccc(Cl)cc12` gave a total cell number of 3.49.

For `Nc1nc(N)nc(-c2cc(Cl)ccc2Cl)n1` [Irsogladine], the total cell number is -2.08.

`CCN1CCCC1CNC(=O)c1cc(S(=O)(=O)CC)c(N)cc1OC` (stereo unspecified) [Amisulpride]: the total cell number is -0.753 ± 1.4.

As to `CCCS(=O)(=O)Nc1ccc(F)c(C(=O)c2c[nH]c3ncc(Cl)cc23)c1F`, the total cell number worked out at 0.199.

In the case of `CNC(=O)CN1CCC(Oc2cc3c(Nc4cccc(Cl)c4F)ncnc3cc2OC)CC1` [AZD8931 (Sapitinib)], the total cell number was -10.1.

`Cc1c(OCC(F)(F)F)ccnc1C[S+]([O-])c1nc2ccccc2[nH]1` (stereo unspecified) [Lansoprazole]: the total cell number is 2.3 ± 2.4.

In turn, `CC[C@@H]1C(=O)N(C)c2cnc(Nc3ccc(C(=O)NC4CCN(C)CC4)cc3OC)nc2N1C1CCCC1` showed a total cell number of -26.1.

The molecule `Cn1c(=O)c2c(ncn2C)n(C)c1=O` [Caffeine] gave a total cell number of -1.42.

In turn, `CCCCCCCC/C=C\CCCCCCCC(=O)O` [Oleic Acid] came in with a total cell number of -0.877.

Regarding `CO[C@H]1C[C@@H]2CC[C@@H](C)[C@@](O)(O2)C(=O)C(=O)N2CCCC[C@H]2C(=O)O[C@H]([C@H](C)C[C@@H]2CC[C@@H](OP(C)(C)=O)[C@H](OC)C2)CC(=O)[C@H](C)/C=C(\C)[C@@H](O)[C@@H](OC)C(=O)[C@H](C)C[C@H](C)/C=C/C=C/C=C/1C` [Ridaforolimus (Deforolimus, MK-8669)], the total cell number was -0.664.

`CC(C)(C)NCC(O)c1ccc(O)c(CO)c1` (stereo unspecified) [Albuterol hemisulfate]: the total cell number was -0.752.

Consider `COc1ccc2cc1Oc1ccc(cc1)C[C@H]1c3c(cc4c(c3Oc3cc5c(cc3OC)CCN(C)[C@@H]5C2)OCO4)CCN1C` [Cepharanthine], for which the total cell number is -14.3.

In turn, `O=C(O[C@@H]1C[C@@H]2C[C@H]3C[C@H](C1)N2CC3=O)c1c[nH]c2ccccc12` [Dolasetron mesylate hydrate] gave a total cell number of -0.866.

As for `CC(C)(C)NC(=O)[C@@H]1CN(Cc2cccnc2)CCN1C[C@@H](O)C[C@@H](Cc1ccccc1)C(=O)N[C@H]1c2ccccc2C[C@H]1O` [Indinavir sulfate salt hydrate], the total cell number was -1.37.

On to `COc1ccc(COc2cc3oc(=O)c4cc(C(C)O)ccc4c3cc2OC)cc1` (stereo unspecified) [Palomid 529 (P529)], for which the total cell number is -1.92.

For the molecule `NC1=N[C@@]2(c3cc(NC(=O)c4ccc(F)cn4)ccc3F)COC[C@H]2CS1`, the total cell number is -2.27.

With `COC(=O)Nc1nc2cc(C(=O)c3ccc(F)cc3)ccc2[nH]1` [Flubendazole], the total cell number is -5.97.

Take `CC(=O)O[C@H]1Cc2ccccc2N(C(N)=O)c2ccccc21`: the total cell number was -1.91.

Molecule `COC1=CC(=O)C[C@@H](C)[C@]12Oc1c(Cl)c(OC)cc(OC)c1C2=O` [Griseofulvin] had a total cell number of -2.76.

`CCC(=O)NCC[C@@H]1CCc2ccc3c(c21)CCO3` [Ramelteon] gave a total cell number of -0.394.

Take `CN(CCCOc1ccc(Cc2ccccc2)cc1)CCC(=O)O`: the total cell number was -0.315.

The molecule `CC(C)(C)c1cc(/C=C(\C#N)C(N)=S)cc(C(C)(C)C)c1O` [Tyrphostin AG 879] registered a total cell number of -0.603 ± 0.72.

`COc1ccc(-c2coc3cc(O)cc(O)c3c2=O)cc1` [Biochanin A] returned a total cell number of -0.0458.

As to `O=S(=O)(NCCNC/C=C/c1ccc(Br)cc1)c1cccc2cnccc12`, the total cell number is -7.05.

Molecule `O[C@@H](COc1cccc2ncccc12)CN1CCN(C2c3ccccc3[C@@H]3[C@H](c4ccccc42)C3(F)F)CC1` (stereo partly specified) displayed a total cell number of -22.1.

Consider `OCC(O)CN1CCN(c2ccccc2)CC1` (stereo unspecified) [Dropropizine], for which the total cell number amounted to 0.904.

With `CN1Cc2sccc2C(c2ccc(O)c(O)c2)C1` (stereo unspecified), the total cell number was -1.59.

For the molecule `COc1ccccc1N1CCN(CCN2C(=O)CC3(CCCC3)CC2=O)CC1`, the total cell number is -1.29.

`COc1ccccc1N1CCN(CCN2C(=O)CC3(CCCC3)CC2=O)CC1` [BMY 7378 dihydrochloride] returned a total cell number of -2.22.

Consider `C[C@H](O)C(=O)C1=Nc2c(nc(N)[nH]c2=O)NC1` [Sepiapterin], for which the total cell number is -0.448.

As for `CCCC(CCC)C(=O)O` [Valproic acid sodium], the total cell number was found to be 0.176.

As for `CCCC(CCC)C(=O)O` [Valproic acid sodium salt (Sodium valproate)], the total cell number was -0.34.

For the molecule `CCCC(CCC)C(=O)O` [Divalproex Sodium], the total cell number is -0.0804.
